In PubChem BioAssay AID2546 (National Center for Advancing Translational Sciences (NCATS), 2010):
Among all 310,000 compounds or so, about 11,000 (3.5%) were called active. The inconclusive results got no clear call from the source; some entries with a clear call stand among them for comparison. The call rests on the fitted dose curve; in most records, active means well fitted inhibition curve with a large enough effect; inconclusive means small, poorly fitted or top-dose-only effect, or effect the other way; inactive means flat fitted curve, though single readings scatter. Potencies of inconclusive entries are left out as doubtful fits.
Potency means the concentration at half of the fitted maximal effect; tags describe the fitted curve by direction and shape.

Assay: VP16 counterscreen qHTS for inhibitors of ROR gamma transcriptional activity;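 further: Gal4-VP16 expression switched on by copper sulfate through the metallothionein promoter; nearly all actives have a fitted effect of over 50% in size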
Conditions: Drosophila S2 Gal4-VP16 UAS-luciferase, luminescence, 20 h; series mostly up to 53.6 µM
For `CNC[C@H](Cc1ccccc1)NC[C@@H](Cc1cccc2ccccc12)NCCc1ccc(C)cc1`, the Potency was inconclusive [inhibitor, single point].
In the case of `N#Cc1cccc(NC(=O)N2CCC3(CC2)CCN(C(=O)c2csnn2)CC3)c1`, the Potency was “inactive”.
For `NC(=O)c1c(NC(=O)c2ccccc2)sc2c1CCc1ccccc1-2`, the Potency was inconclusive [inhibitor, single point].
In the case of `COc1cccc(-c2nnc(NC(=O)c3ccccc3Br)o2)c1`, the Potency was active: 3.16 µM.
For `COc1ccc(Cc2[nH]n3c(=O)cc(C)nc3c2-c2ccccc2)cc1`, the Potency was inconclusive [inhibitor, single point].
With `COc1cccc(/C=N/NC(=O)c2ccoc2C)c1O` the Potency was active: 0.501 µM.
For `Cc1cc(/C=N/n2cnnc2)c(C)n1-c1cccc(C(=O)O)c1`, the Potency was inconclusive [inhibitor, partial curve].
For `O=C(NNC(=O)c1cccnc1SCc1cccc([N+](=O)[O-])c1)c1ccccn1`, the Potency was active: 5.01 µM.
In the case of `Cc1ccccc1C(=O)NC(=S)NCC1CCCO1` (centres undefined), the Potency was inconclusive [inhibitor, single point].
In the case of `Cc1ccc(O)c(N=CC2=C(O)c3ccccc3C2=O)c1`, the Potency was active: 7.08 µM.
In the case of `COc1ccc(-c2cc(C(=O)Nc3cc(C)n(Cc4ccc(Cl)cc4)n3)no2)cc1OC`, the Potency was inconclusive [inhibitor, single point].
With `Cn1c2c(c(=O)n(C)c1=O)C(C(F)(F)F)(C(F)(F)F)N=C(C1CCCCC1)N2` the Potency was “inactive”.
In the case of `C=CC[n+]1c(/C=C2\C=Cc3cc(C)ccc3N2CC)ccc2ccccc21`, the Potency was active: 3.16 µM.
With `Cc1cccc(OCC(=O)N(Cc2ccco2)C2CCS(=O)(=O)C2)c1C` (centres undefined) the Potency was inconclusive [inhibitor, single point].
For `S=C1SCN(CC2CC2)CN1CC1CC1`, the Potency was active: 7.08 µM.
With `CCC(=O)Nc1ccc(Cl)c(NC(=S)NC(=O)c2cc3ccccc3o2)c1` the Potency was active: 3.55 µM.
In the case of `O=C(NCCCN1CCCC1=O)[C@H](CSCc1ccccc1)N1Cc2ccccc2C1=O`, the Potency was “inactive”.
For `c1coc(CNc2nc3nonc3nc2NCc2ccco2)c1`, the Potency was active: 12.6 µM.
For `COc1ccc(-c2ocnc2C(=O)NCc2nn(-c3ccccc3)nc2C)cc1`, the Potency was inconclusive [inhibitor, single point].
With `Cc1ccc(-n2c(COc3cccc(C)c3)n[nH]c2=S)cc1` the Potency was inconclusive [inhibitor, partial curve].
In the case of `Cc1ccc(C)n1-c1cccc(NC(=O)c2ccccc2)c1`, the Potency was inconclusive [activator, single point].
For `O=c1c2ccccc2nnn1CSc1nnc(-c2ccco2)o1`, the Potency was inconclusive [activator, single point].
For `CCc1c(C)nc2ncnn2c1N1CCCC(C(=O)NCc2ccco2)C1` (centres undefined), the Potency was inconclusive [inhibitor, single point].
With `CN1CCC(=NNC(=O)CN(c2cccc([N+](=O)[O-])c2)S(=O)(=O)c2ccccc2)CC1` the Potency was “inactive”.
With `CC/C(=C\C(=O)c1ccncc1)Nc1ccc(O)cc1` the Potency was inconclusive [activator, single point].
With `CC(=O)c1sc(N/N=C\c2ccc(Br)cc2)nc1C` the Potency was inconclusive [inhibitor, single point].
In the case of `C/C(=N\NC(=O)c1ccc(CN2CCc3ccccc3C2)cc1)c1ccccc1O`, the Potency was active: 2.51 µM.
For `CCOCCCNC(=S)N1CCN(c2nc(-c3ccccc3)cs2)CC1`, the Potency was inconclusive [inhibitor, single point].
With `CC(C)(C)OC(=O)NC(Cc1ccccc1)C(=O)N1CCC(C(=O)NCC(=O)Nc2ccc(F)cc2)CC1` (centres undefined) the Potency was “inactive”.
With `CCOC(=O)c1ccc(NC=C2C(=O)OC3(CCCCC3)OC2=O)cc1` the Potency was “inactive”.
For `CNc1sc(C(=O)c2cccs2)c(N)c1-c1nc2ccccc2s1`, the Potency was active: 3.98 µM.
For `CC(NC(=O)c1cc2ccccc2oc1=O)c1ccccc1` (centres undefined), the Potency was “inactive”.
With `NC(=O)CSc1nc2ccccc2n1-c1ccccc1` the Potency was “inactive”.
In the case of `CCOc1ccc(Cn2nnc(C(=O)Nc3cc(C)cc(C)c3)c2N)cc1`, the Potency was inconclusive [inhibitor, single point].
For `O=C(NC1CCCC1)c1cc(COc2ccc3ncccc3c2)on1`, the Potency was active: 5.01 µM.
For `COc1ccc(N2CCN(Cc3nc4c(c(=O)n(C)c(=O)n4C)n3CC(C)=O)CC2)cc1`, the Potency was “inactive”.
In the case of `CCOC(=O)c1ccc(NC(=S)N2CCSC2c2ccc(Cl)cc2)cc1` (centres undefined), the Potency was inconclusive [inhibitor, single point].
For `COc1ccc(NC(=O)CSc2ccccn2)cc1`, the Potency was inconclusive [activator, single point].
For `COC(=O)[C@@H]1[C@@H](C#N)C2(c3ccccc3-c3ccccc32)N(c2ccc(Cl)cc2)N1C#N`, the Potency was active: 10 µM.
With `CCC(C)c1ccc(C2C3=C(Nc4nc(N)[nH]c(=O)c42)c2ccccc2C3=O)cc1` (centres undefined) the Potency was inconclusive [inhibitor, single point].
For `C#CCN(C(=O)c1cc(COc2cccc(C(F)(F)F)c2)on1)C1CCCCC1`, the Potency was inconclusive [inhibitor, single point].
For `COCCCNc1oc(-c2ccccc2OC)nc1C#N`, the Potency was inconclusive [inhibitor, partial curve].
With `CCOC(=O)c1ccccc1NC(=S)N1CCC(C)CC1` the Potency was inconclusive [inhibitor, single point].
In the case of `Cc1noc(NS(=O)(=O)c2ccc(NC(=O)C34CC5CC(C3)CC(n3cnc(Cl)n3)(C5)C4)cc2)c1C`, the Potency was inconclusive [inhibitor, full curve, poor fit].
For `CC(C)c1ccc(/C=C/C(=O)Nc2nncs2)cc1`, the Potency was “inactive”.
For `COc1ccc(OCC(=O)Nc2cc(OC)ccc2N2CCCCC2)cc1`, the Potency was inconclusive [inhibitor, single point].
In the case of `CSc1ccc(S(=O)(=O)Nc2cccc(F)c2)cc1`, the Potency was inconclusive [inhibitor, single point].
For `O=C(N/N=C/c1ccc([N+](=O)[O-])s1)c1ccncc1`, the Potency was active: 4.47 µM.
In the case of `COc1cccc(NC(=O)Cc2nnc(SCC(=O)c3ccccc3)n2C)c1`, the Potency was inconclusive [inhibitor, single point].
With `O=S(=O)(NC(=S)NC1CCCCC1)c1ccccc1` the Potency was inconclusive [inhibitor, single point].
In the case of `CC(=O)Nc1ccc(S(=O)(=O)N/N=C/c2ccc(C)s2)cc1`, the Potency was inconclusive [inhibitor, single point].
In the case of `S=c1nc(-c2cccc(Cl)c2)[nH][nH]1`, the Potency was inconclusive [inhibitor, single point].
With `Cc1ccc2[nH]c(=O)c(CN(Cc3cccs3)S(=O)(=O)c3ccc4c(c3)OCCO4)cc2c1` the Potency was inconclusive [activator, single point].
In the case of `COc1cc(SC)ccc1C(=O)N(C)Cc1ccccc1`, the Potency was inconclusive [inhibitor, single point].
With `CC(=O)c1cccc(OCc2cc(C(=O)NC(C)Cc3cccnc3)no2)c1` (centres undefined) the Potency was “inactive”.
With `CCCCNC(=S)NNC(=O)C12CC3CC(CC(C3)C1)C2` the Potency was inconclusive [inhibitor, single point].
With `CCNC(=O)CSc1nnc(-c2ccccc2Br)n1-c1cccc(C(F)(F)F)c1` the Potency was “inactive”.
In the case of `CC(=O)Oc1ccc(C(=O)Nc2ccccc2NC(=O)c2ccc(OC(C)=O)cc2)cc1`, the Potency was “inactive”.
For `Cc1ccc(NC(=S)NCc2cccn2C)cc1`, the Potency was inconclusive [inhibitor, single point].
In the case of `Cc1ccc(C(=O)N/C(=C\c2ccc(-c3ccc(Cl)cc3)o2)C(=O)NCCCN(C)C)cc1`, the Potency was inconclusive [inhibitor, single point].
In the case of `COCCNC(=S)N1CCN(c2nc(-c3ccc(Cl)cc3)cs2)CC1`, the Potency was “inactive”.
In the case of `COc1ccc(-n2nnnc2-c2nc3ccccc3s2)cc1`, the Potency was inconclusive [inhibitor, single point].
For `CCS(=O)(=O)Nc1ccc(C(=O)NCCSc2ccccc2)cc1`, the Potency was inconclusive [activator, single point].
In the case of `COc1ccccc1-c1nnc(NC(=O)C2=COCCO2)o1`, the Potency was active: 2.82 µM.
In the case of `O=C(c1cnccn1)N1CCC2(CC1)CN(c1cccc(-c3ccccc3)c1)C2`, the Potency was active: 5.01 µM.
For `CCc1c(C)nc2ncnn2c1NCCc1ccccc1`, the Potency was inconclusive [inhibitor, single point].
For `CCC(C)C(=O)Nc1nc(C)c(-c2csc(Nc3cc(Cl)ccc3OC)n2)s1` (centres undefined), the Potency was inconclusive [inhibitor, single point].
In the case of `CCOC(=O)C1CCN(Cc2cc(=O)n3c(-c4ccccc4)csc3n2)CC1`, the Potency was “inactive”.
With `O=C(Nc1ccc(CN2CCOCC2)cc1)c1ccc2ccccc2c1` the Potency was inconclusive [activator, partial curve].
With `O=c1c2ccccc2nc2ccc(NCc3cccs3)nn12` the Potency was “inactive”.
For `O=S(=O)(c1ccc(F)cc1)c1snnc1-c1ccccc1`, the Potency was inconclusive [inhibitor, partial curve].
In the case of `COc1ccc(C(C)=O)cc1CSc1ccc2c(c1)OCCO2`, the Potency was inconclusive [activator, full curve, poor fit].
In the case of `CCN(C(=O)CC(C)C)c1nnc(Cn2nnc3ccccc32)s1`, the Potency was inconclusive [inhibitor, single point].
In the case of `Cc1nnsc1C(=O)NC1CCCc2c1cnn2-c1ccc(C(C)(C)C)cc1` (centres undefined), the Potency was active: 6.31 µM.
